Data as given in the supplement of paper PMC10126150.
Values marked as one replicate rest on one cluster of the flow cell; about a third of the high ones do not repeat.

Tested on: ATP
Assay: switch fluorescence ratio, 500 uM ATP over buffer (Cy3 cluster intensity, sum of 5 cycles each) (fold (ratio)); higher = stronger signal-on switching upon ATP binding; sequences stand for … in TCGTCGGCAGCGTCAGATGTGTATAAGAGACAGTTTTTTTTTTTTTTTTTTTTTTTTT…TC
Settings: aptamer strand: ATP DNA aptamer (quencher-CACCTGGGGGAGTATTGCGGAGGAAGG + anchor), 100 nM annealed; ATP concentration: 500 uM; one replicate
Procedure, shortened: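 For every switch-domain sequence, the fluorescence ratio is the mean of per-cluster values, each being summed target-cycle Cy3 intensity over summed buffer-cycle Cy3 intensity. Clusters outside 100-1000 RFU were excluded. On a modified Illumina MiSeq flow-cell, the Cy3-labelled switching-strand clusters were annealed to 100 nM quencher-labelled ATP aptamer, imaged in selection buffer and then after 15 min with 500 uM ATP at 22 °C. Five such cycles were run, with NaOH stripping and re-annealing between them.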
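Note: ATP exposure 15 min at 22 °C before imaging.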

Row | Sequence | switch fluorescence ratio
1 | TATCTACGAC | 1.12
2 | AGGGAGACCT | 1.13
3 | CCATAAAAGT | 0.947
4 | CTAGTTATGG | 1
5 | GAGGGTCGTA | 0.98
6 | ACACAAATTT | 1.05
7 | AATATCATTA | 1.01
8 | AATGGCTGAA | 0.98
9 | GCGCATCGAT | 1.02
10 | TAGTTCACTA | 1
11 | GCAGTAATCA | 1.14
12 | GTGTGGGATA | 0.989
13 | AATGGGTGCT | 0.984
14 | CGTTTCATCA | 0.983
15 | GCGTCCTGAC | 1.13
16 | ACCAATGGGT | 1.04
17 | TACTGGATAG | 0.995
18 | ACTATGGTCT | 1.01
19 | GCTAACACAT | 0.988
20 | GGTCCGCTTG | 1.1
21 | GGTTATAAAG | 0.976
22 | TCTACCCATT | 1.04
23 | AGCAGAGCTC | 1.02

Row | Sequence | switch fluorescence ratio
24 | TCTTATGTTT | 0.969
25 | CAGTTTTGTG | 0.99
26 | CAGAGCGAGG | 1.03
27 | CGGCTAATT | 1.03
28 | GCATCAGTG | 0.979
29 | GGCATTCTTG | 1.01
30 | GTAATTGCCA | 0.973
31 | TTCAGACCCG | 1.03
32 | TAGCCTTGCT | 1.02
33 | AGTCAATCA | 0.995
34 | CGCCTTTCCG | 1.18
35 | ATCATAAAGT | 1.03
36 | ACAACTCGGT | 1.03
37 | TTACGTCCAT | 1.08
38 | TTATGAGAAA | 0.977
39 | GCCAACTAAT | 1.24
40 | GCTGAGCCAT | 1.03
41 | GGAACCCGGC | 0.988
42 | CCCAGCAGTT | 2.03
43 | CTTTGATCGA | 1.05
44 | ACCTGTAGGC | 1.15
45 | TCGTGATACT | 5.29
46 | GTAGAGTGCA | 1.02

Row | Sequence | switch fluorescence ratio
47 | AGGGAACTGC | 1.03
48 | ACTATGGGTC | 1.03
49 | CAAGGGCAGC | 1.04
50 | TCCACAGA | 1.05
51 | GGTCGTTCCG | 0.945
52 | CACCTGACCT | 1.4
53 | AGTTGTGGTG | 0.959
54 | CGTGGTTCTT | 0.976
55 | TATGCCAACG | 1.03
56 | GCACGTAGTG | 0.98
57 | TTTGGAGATT | 0.996
58 | TCACATCATA | 1.03
59 | GTTACTGGGA | 1.04
60 | GCGGAGCAGG | 1.09
61 | CCACTCGTTG | 1.01
62 | GATTTTGTCG | 0.95
63 | TGCGTGCACC | 1.07
64 | GTGTAATCGC | 1.03
65 | CCCGCGGGGC | 1.21
66 | CGGATCAATG | 1.03
67 | TTACGGTCAC | 1.42
68 | AGTAATCATA | 0.991
69 | GCGCATCGCC | 1.07

Row | Sequence | switch fluorescence ratio
70 | CCGATCCCCA | 1.15
71 | TACTAGGACA | 1.08
72 | AATGAGGAA | 0.986
73 | CACAAGAGTG | 1.01
74 | AAATCCTTCG | 1.91
75 | TCATGCGATG | 1
76 | GCTCGACCGG | 0.954
77 | CTTTTAAGAC | 0.993
78 | AGACGTTATG | 0.992
79 | TTTACATCAC | 1.45
80 | ATAGCCTCCC | 1.39
81 | GTATTGAGGG | 0.989
82 | GCCGGGTGCG | 0.984
83 | TTAAATTAAG | 0.964
84 | ACCCTATATC | 1.09
85 | GTATCACATT | 0.977
86 | CAAATCGTGT | 0.968
87 | GAGAAATTCA | 1.02
88 | CTCGTTCGGT | 0.974
89 | ATAACGATTT | 1
90 | AACAACTCA | 1.02
91 | CTAACACGTG | 1.01
92 | GTCCGAATGG | 1.07

Row | Sequence | switch fluorescence ratio
93 | CTCAGATTTG | 1.02
94 | TTTACTATCT | 1.02
95 | TATCTGTGTG | 0.972
96 | CAAGCTATGT | 0.959
97 | CCAGCTGGGA | 1.03
98 | GAAGGTTAAA | 0.993
99 | GCCTACTGTA | 1.19
100 | AAGCTCTCGT | 0.965
101 | AGAGATTAGG | 0.997
102 | GGTATCAC | 1.04
103 | CGTGCTGTAT | 1.01
104 | GAAGTGGAGC | 1.02
105 | CGACTATGTT | 0.96
106 | TTTCCGCTGG | 1.36
107 | CAGGGACGAC | 1.06
108 | AAATTGTTGG | 1.02
109 | ATATCCGCAC | 6.17
110 | TGGGCGTTAC | 1.05
111 | TCAATTTTCA | 1.01
112 | GTATACCACT | 1.06
113 | ACCATGAACT | 1.03
114 | GTTGTTCGG | 0.986
115 | TATTCTGTCG | 1.03

Row | Sequence | switch fluorescence ratio
116 | TTAGTGGTCT | 1.03
117 | TGGGCGGTT | 1.1
118 | TTCGTCGACC | 0.973
119 | TGGTTCATG | 0.985
120 | GTAGGAAACT | 0.994
121 | ACGGCGTGGT | 0.986
122 | AGTAGCAGGT | 0.991
123 | TGCGACCGCT | 1.05
124 | GCTGCAGGCC | 1.03
125 | ACACAGGTTT | 1.12
126 | CAGTAGTTAG | 0.983
127 | ACGTTCATGA | 1.06
128 | CACTCGAAAC | 1.07
129 | ACAAGAGACT | 0.975
130 | TTCTCCCCCC | 1.81
131 | CACGAATTG | 0.989
132 | GGAATATTCG | 1.02
133 | TTCGTTCCCG | 0.959
134 | AGACTATACC | 1.24
135 | GTCTCGAGTT | 1
136 | TTGTGGGGAT | 0.982
137 | AGGGGCCATG | 0.987
138 | ACTCCTTTTG | 1.07

Row | Sequence | switch fluorescence ratio
139 | ATAGTCGATA | 0.976
140 | ACTTCCGACT | 2.15
141 | GTTTTACCCG | 1.03
142 | GATCGAATCA | 1
143 | TCTCTAGTTT | 1.01
144 | TGGTCAAAAT | 0.966
145 | CCACATACGC | 1.63
146 | TAGTGGTCCG | 0.914
147 | GGGTTTACGC | 0.995
148 | GACTACAAGG | 1.01
149 | ATGGTCCAAG | 0.97
150 | CATACAGGGT | 1.11
151 | GCGGGACTTC | 1.02
152 | AGATGATCGA | 0.975
153 | CATTAATCCA | 1.04
154 | TCTCAGTCGC | 0.99
155 | ATTTCGGGCC | 1.02
156 | TACCTTGCCT | 1.26
157 | TACTTTGA | 0.979
